Laboratory results reported in PubChem BioAssay (NCI).
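48-hour exposure; five concentrations; linearly interpolated endpoints. At the GI50, growth is halved. TGI: total growth inhibition.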

tested on: NCI-H322M lung; experiment: NCI tumour cell line growth inhibition, 48 h

Row | SMILES | TGI | GI50
1 | CCOc1ccc(N/C(=C(/C(Cl)=C(/Cl)NCCN)[N+](=O)[O-])n2nnc3ccccc32)cc1 | > 100 µM | 
2 | O=C1CC(C(O)CO)CC(=O)N1 (stereo not given) | > 100 µM | 
3 | CCOC(=O)c1sc2nc(SC)nc3c2c1N=CN3c1ccc(Br)cc1 | > 100 µM | 
4 | Nc1n[nH]c2ccc([C@@H]3Nc4ccc5[nH]ncc5c4[C@H]4[C@H]5CCC(C5)[C@H]43)cc12 | > 100 µM | 1.17 µM
5 | CC(C)=CCN1CC(C)C(=O)Nc2cc(Cl)ccc21 (stereo not given) | 81.5 µM | 
6 | NC(N)=N/N=C(/c1ccccc1)c1ccc(F)cc1 | 22 µM | 0.569 µM
7 | CCOC(=O)c1cc2c([N+](=O)[O-])c(NC(C)=O)ccc2s1 | > 100 µM | 
8 | COc1c(C2CC(=O)Nc3c2cnn3Cc2ccco2)cc2c(c1OC)OCO2 (stereo not given) | > 100 µM | 0.524 µM
9 | C=C1C(O)C2CCC(C)(C)C(=O)C2=C(CC(C)C)C12CC2 (stereo not given) | 98.6 µM | 32.1 µM
10 | CO[C@@H](C(=O)OC1C=CC2(CC1)C(=O)N(C)c1ccccc12)c1ccccc1 (stereo not given in full) | > 100 µM | 
11 | Clc1nc(Cl)nc(NC23CC4CC(CC(C4)C2)C3)n1 | 50.3 µM | 
12 | COC(=O)C(=O)CC(=O)CCn1ncc(Cl)c(Cl)c1=O | 29.9 µM | 
13 | N#Cc1c(NC(=O)c2cccc(C(F)(F)F)c2)sc2c1CCC(=O)C2 | > 100 µM | 2.99 µM
14 | C=CC(=O)c1ccc2c(c1)OCCOCCOCCOCCOCCO2 | > 100 µM | 
15 | N#C/C(=C\NC(=S)Nc1ccc(S(=O)(=O)Nc2ccccn2)cc1)C(N)=O | > 100 µM | 
16 | O=C1CC(=O)N(c2ccccc2)N1/C(=C/c1ccccc1)c1ccccc1 | 66.2 µM | 
17 | c1sc(NC2=NCCO2)c2c1CCCC2 | > 100 µM | 
18 | C=C1CCC2C(/C=C(\C)CCC1O)OC(=O)C2C (stereo not given) | > 100 µM | > 100 µM
19 | COc1cc2c(c3c1C=CCO3)C(=O)c1ccccc1C2=O | > 100 µM | 
20 | O=c1c2ccccc2[nH]c(=S)n1-c1ccc(N=Nc2cccc3c(O)cccc23)cc1 | > 100 µM | 
21 | [N-]=[N+]=Nc1c(Cl)c(=O)n(-c2ccccc2)c2ccccc12 | 61.6 µM | 
22 | COC(=O)C(c1[nH]nc2ccccc12)C(C(=O)OC)c1[nH]nc2ccccc12 (stereo not given) | > 100 µM | 
23 | Cc1cc(=O)cc2sc3c(C)cccc3nc1-2 | > 100 µM | 
24 | Nc1nc2ncc(SCc3ccc(C(=O)NC(CCC(=O)O)C(=O)O)cc3)cc2c(=O)[nH]1 (stereo not given) | > 100 µM | 
25 | Cc1cn(C2C=CC(COP(=O)(OCC3=CC(=O)c4ccccc4C3=O)N(C)CCCCCl)O2)c(=O)[nH]c1=O (stereo not given) | 21.1 µM | 

Row | SMILES | TGI | GI50
26 | Cc1ccc(N=Nc2c3c(c(O)c4ccccc24)CCC(C)(C)O3)cc1 | 31.6 µM | 
27 | O=C(O)c1ccc(NC(c2ccccc2)c2ccc3cccnc3c2O)cc1 (stereo not given) | > 100 µM | 
28 | Cn1cc(NC(=O)c2cc(NC(=O)CCCCCCCCCCC(=O)Nc3cc(C(=O)Nc4cc(C(=O)NCCC(=N)N)n(C)c4)n(C)c3)cn2C)cc1C(=O)NCCC(=N)N | 86.8 µM | 
29 | COc1ccc(-c2cc(-c3cc(Cl)ccc3Cl)nc3[nH]c(-c4cc(F)c(Cl)cc4Cl)cc(=O)c23)cc1 | 67.7 µM | 19.6 µM
30 | COC1(C)CC2N(C(=O)c3ccccc3)N=C(c3ccccc3)CC2(C)O1 (stereo not given) | > 100 µM | 
31 | O=C(NS(=O)(=O)Nc1ccc(Cl)cc1)OCc1ccc(Cl)cc1Cl | 55.6 µM | 
32 | COC1(C(=O)N2Cc3nc(Cl)nc(N[C@H](C)c4cc(N)cc(C(F)(F)F)c4)c3C2)CCOCC1 | > 100 µM | 8.12 µM
33 | Cc1c(/C=N\NC(=S)N2CCN(C(=S)N/N=C\c3c(C)n(C)n(-c4ccccc4)c3=O)CC2)c(=O)n(-c2ccccc2)n1C | > 100 µM | 
34 | Cc1ccc2c(c1)nc(N)n[n+]2[O-] | > 100 µM | 
35 | COC1OC(=O)[C@H]2O[N+]([O-])=C(C)[C@@H]12 (stereo not given in full) | > 100 µM | 
36 | c1ccc(C[P+]2(c3ccccc3)c3ccccc3-c3ccccc32)cc1 | > 100 µM | 
37 | O=c1[nH]cnc2c(C3OC(CO)C(O)C3O)c[nH]c12 (stereo not given) | > 100 µM | 
38 | CCC(C)C1NC(=O)c2nc(oc2-c2ccccc2)-c2csc(n2)-c2csc(n2)-c2nc(oc2C)-c2coc(n2)CNC(=O)C(C(C)CC)NC1=O (stereo not given) | 0.184 µM | 0.0531 µM
39 | COc1cc2ncn(-c3cc(OCc4ccccc4Cl)c(C(N)=O)s3)c2cc1OC | > 21.5 µM | 0.698 µM
40 | COc1cccc(/C=C/C(=O)c2cc3c(N)c(C(=O)Nc4ccccc4C)sc3nc2C)c1 | 10.9 µM | 1.93 µM
41 | CSc1nc(SC)c2c(CN=[N+]=[N-])c(Br)n(Cc3ccccc3)c2n1 | > 100 µM | 
42 | CCCN=C1CC(C)Nc2ccccc2N1 (stereo not given) | > 100 µM | 
43 | COc1cc(C(=O)NC2c3ccccc3-c3ccccc32)c(N)cc1OCc1ccccc1 | > 100 µM | > 100 µM
44 | CC(=O)NC1C(OCc2ccccc2)OC(CO)C(O)C1OCC(=O)N[C@@H](C)C(=O)N[C@H](CCC(=O)NCCNCCNc1c2ccccc2nc2cccc([N+](=O)[O-])c12)C(N)=O (stereo not given in full) | > 100 µM | 
45 | CN=C(N)N/N=C(\c1ccccc1)c1ccc(Br)cc1 | 11.9 µM | 0.626 µM
46 | C=C1C(=O)O[C@H]2[C@H]1CC/C(CNC(=O)c1c[nH]c3ccc(F)cc13)=C\CC[C@@]1(C)O[C@@H]21 | 22.7 µM | 10.3 µM
47 | Brc1cccc(-c2cc(-c3ccc4c(c3)OCCO4)[nH]n2)c1 | 45.9 µM | 2.39 µM
48 | C=CC(=O)N[C@H]1C=C(C)c2c(-c3cnc4ccccc4c3)c3c(N)ncnc3n2C1 | 22.9 µM | 0.162 µM
49 | O=[N+]([O-])[C@@H]1C2C=CC(C2)[C@H]1Cl (stereo not given in full) | > 100 µM | 
